# Source: the supplement of paper PMC8728848
# This is one part of the list.
# B1: SP16664B-bot-474-25-474 (Bacteroides ovatus) (protein)
# chain: CEEDIEIGNKIDESSYLASTQLSGLLLDENTNKNSSVIELRNNEYSTNVVFRLSKLPQKGVDVQIAVEESYAAIYNTIHETDFEVFPAANVKIANNGTFVLAPDDKVTPSVKVTLTAFDGMEEDKTYIVPLTVTSSTEGVTFTETSKHMVLLVQDYRNKPNTNKGEDAVQTVLYFEVNDTNPLNALEFLTESGKYFFDHIVLFAANINWDPEKQRVYLANNENVQFLLDNNDKYLQPLRKAGMKIIISILGNHDEAGVAQLSDMGAREFARELAAYCRAYNLDGVAFDDEYSNSPDLSNPWLASPSAYAGSRLMYECKAVMPEKIVSLYNLGNMYSSSLQVIDGIEPGQYCDYAVADYGGAAGPGTGMTLKQCAGMSIELRRGSGNSSESTARSRKEAGYGYYMFFALDPSLYGSQVYRCQSVCKGLYDETLVYPSYYYKKNSTEREAIN
# Key:
# Experiment in all cases: glycan array binding signal (z-score within array); higher = stronger binding
# Conditions in all cases: glycan notation: IUPAC condensed, linker removed
# [1] = biological target: Fuc(a1-2)Gal(b1-4)[Fuc(a1-3)]GlcNAc
# Procedure, shortened: (§1)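 The binding signal is a Z-score computed within each array and averaged over linkers. Arrays of the same protein sequence at different concentrations or buffers were also averaged together. Data originate from 3228 arrays in the Consortium for Functional Glycomics database, kept only where the protein sequence was available.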
# [2] = biological target: Fuc(a1-2)Gal(b1-4)[Fuc(a1-3)]GlcNAc(b1-2)Man(a1-3)[Fuc(a1-2)Gal(b1-4)[Fuc(a1-3)]GlcNAc(b1-2)Man(a1-6)]Man(b1-4)GlcNAc(b1-4)[Fuc(a1-6)]GlcNAc
# Procedure, shortened: as §1
# [3] = biological target: Fuc(a1-2)Gal(b1-4)[Fuc(a1-3)]GlcNAc(b1-2)[Fuc(a1-2)Gal(b1-4)[Fuc(a1-3)]GlcNAc(b1-4)]Man(a1-3)[Fuc(a1-2)Gal(b1-4)[Fuc(a1-3)]GlcNAc(b1-2)Man(a1-6)]Man(b1-4)GlcNAc(b1-4)GlcNAc
# Procedure, shortened: as §1
# [4] = biological target: Fuc(a1-2)Gal(b1-4)[Fuc(a1-3)]GlcNAc(b1-3)Gal(b1-4)[Fuc(a1-3)]GlcNAc
# Procedure, shortened: as §1
# [5] = biological target: Fuc(a1-2)Gal(b1-4)[Fuc(a1-3)]GlcNAc(b1-3)Gal(b1-4)[Fuc(a1-3)]GlcNAc(b1-3)Gal(b1-4)[Fuc(a1-3)]GlcNAc
# Procedure, shortened: as §1
# [6] = biological target: Fuc(a1-2)Gal(b1-4)[Fuc(a1-3)]GlcNAc(b1-3)GalNAc
# Procedure, shortened: as §1
# [7] = biological target: Fuc(a1-2)Gal(b1-4)[Fuc(a1-3)]GlcNAc(b1-3)[Neu5Ac(a2-6)Gal(b1-4)GlcNAc(b1-6)]Gal(b1-4)Glc
# Procedure, shortened: as §1
# [8] = biological target: Fuc(a1-2)Gal3S(b1-4)GlcNAc
# Procedure, shortened: as §1
# [9] = biological target: Fuc(a1-2)Gal6S(b1-3)GlcNAc
# Procedure, shortened: as §1
# [10] = biological target: Fuc(a1-2)Gal6S(b1-3)GlcNAc6S
# Procedure, shortened: as §1
# Fuc(a1-2)Gal6S(b1-4)Glc = biological target: Fuc(a1-2)Gal6S(b1-4)Glc
# Procedure, shortened: as §1
# [11] = biological target: Fuc(a1-2)Gal6S(b1-4)Glc6S
# Procedure, shortened: as §1
# Fuc(a1-2)[Gal(a1-3)]Gal = biological target: Fuc(a1-2)[Gal(a1-3)]Gal
# Procedure, shortened: as §1
# [12] = biological target: Fuc(a1-2)[Gal(a1-3)]Gal(b1-3)GalNAc
# Procedure, shortened: as §1
# [13] = biological target: Fuc(a1-2)[Gal(a1-3)]Gal(b1-3)GalNAc(b1-3)Gal(a1-4)Gal(b1-4)Glc
# Procedure, shortened: as §1
# [14] = biological target: Fuc(a1-2)[Gal(a1-3)]Gal(b1-3)GlcNAc
# Procedure, shortened: as §1
# [15] = biological target: Fuc(a1-2)[Gal(a1-3)]Gal(b1-3)GlcNAc(b1-2)Man(a1-3)[Fuc(a1-2)[Gal(a1-3)]Gal(b1-3)GlcNAc(b1-2)Man(a1-6)]Man(b1-4)GlcNAc(b1-4)GlcNAc
# Procedure, shortened: as §1
# [16] = biological target: Fuc(a1-2)[Gal(a1-3)]Gal(b1-3)GlcNAc(b1-2)Man(a1-3)[Fuc(a1-2)[Gal(a1-3)]Gal(b1-3)GlcNAc(b1-2)Man(a1-6)]Man(b1-4)GlcNAc(b1-4)[Fuc(a1-6)]GlcNAc
# Procedure, shortened: as §1
# [17] = biological target: Fuc(a1-2)[Gal(a1-3)]Gal(b1-3)GlcNAc(b1-3)GalNAc
# Procedure, shortened: as §1
# [18] = biological target: Fuc(a1-2)[Gal(a1-3)]Gal(b1-3)GlcNAc(b1-6)GalNAc
# Procedure, shortened: as §1
# [19] = biological target: Fuc(a1-2)[Gal(a1-3)]Gal(b1-4)Glc
# Procedure, shortened: as §1
# [20] = biological target: Fuc(a1-2)[Gal(a1-3)]Gal(b1-4)GlcNAc
# Procedure, shortened: as §1
# [21] = biological target: Fuc(a1-2)[Gal(a1-3)]Gal(b1-4)GlcNAc(b1-2)Man
# Procedure, shortened: as §1
# [22] = biological target: Fuc(a1-2)[Gal(a1-3)]Gal(b1-4)GlcNAc(b1-2)Man(a1-3)[Fuc(a1-2)[Gal(a1-3)]Gal(b1-4)GlcNAc(b1-2)Man(a1-6)]Man(b1-4)GlcNAc(b1-4)GlcNAc
# Procedure, shortened: as §1
# [23] = biological target: Fuc(a1-2)[Gal(a1-3)]Gal(b1-4)GlcNAc(b1-2)Man(a1-3)[Fuc(a1-2)[Gal(a1-3)]Gal(b1-4)GlcNAc(b1-2)Man(a1-6)]Man(b1-4)GlcNAc(b1-4)[Fuc(a1-6)]GlcNAc
# Procedure, shortened: as §1
# [24] = biological target: Fuc(a1-2)[Gal(a1-3)]Gal(b1-4)GlcNAc(b1-3)GalNAc
# Procedure, shortened: as §1
# [25] = biological target: Fuc(a1-2)[Gal(a1-3)]Gal(b1-4)GlcNAc(b1-3)[Fuc(a1-2)[Gal(a1-3)]Gal(b1-4)GlcNAc(b1-6)]GalNAc
# Procedure, shortened: as §1
# [26] = biological target: Fuc(a1-2)[Gal(a1-3)]Gal(b1-4)GlcNAc(b1-6)GalNAc
# Procedure, shortened: as §1
# [27] = biological target: Fuc(a1-2)[Gal(a1-3)]Gal(b1-4)[Fuc(a1-3)]Glc
# Procedure, shortened: as §1
# [28] = biological target: Fuc(a1-2)[Gal(a1-3)]Gal(b1-4)[Fuc(a1-3)]GlcNAc
# Procedure, shortened: as §1
# [29] = biological target: Fuc(a1-2)[Gal(a1-3)]Gal(b1-4)[Fuc(a1-3)]GlcNAc(b1-3)GalNAc
# Procedure, shortened: as §1
# [30] = biological target: Fuc(a1-2)[Gal(a1-4)]Gal(b1-4)GlcNAc
# Procedure, shortened: as §1
# [31] = biological target: Fuc(a1-2)[GalNAc(a1-3)]Gal
# Procedure, shortened: as §1
# [32] = biological target: Fuc(a1-2)[GalNAc(a1-3)]Gal(b1-3)GalNAc(a1-3)[Fuc(a1-2)]Gal(b1-4)GlcNAc
# Procedure, shortened: as §1
# [33] = biological target: Fuc(a1-2)[GalNAc(a1-3)]Gal(b1-3)GalNAc(b1-3)Gal(a1-4)Gal(b1-4)Glc
# Procedure, shortened: as §1
# [34] = biological target: Fuc(a1-2)[GalNAc(a1-3)]Gal(b1-3)GlcNAc
# Procedure, shortened: as §1
# [35] = biological target: Fuc(a1-2)[GalNAc(a1-3)]Gal(b1-3)GlcNAc(b1-2)Man(a1-3)[Fuc(a1-2)[GalNAc(a1-3)]Gal(b1-3)GlcNAc(b1-2)Man(a1-6)]Man(b1-4)GlcNAc(b1-4)GlcNAc
# Procedure, shortened: as §1
# [36] = biological target: Fuc(a1-2)[GalNAc(a1-3)]Gal(b1-3)GlcNAc(b1-2)Man(a1-3)[Fuc(a1-2)[GalNAc(a1-3)]Gal(b1-3)GlcNAc(b1-2)Man(a1-6)]Man(b1-4)GlcNAc(b1-4)[Fuc(a1-6)]GlcNAc
# Procedure, shortened: as §1
binder,measurement,setting,value
B1,glycan array binding signal (z-score),[1],-0.434
same,glycan array binding signal (z-score),[2],0.4
same,glycan array binding signal (z-score),[3],0.183
same,glycan array binding signal (z-score),[4],-0.262
same,glycan array binding signal (z-score),[5],-0.263
same,glycan array binding signal (z-score),[6],1.15
same,glycan array binding signal (z-score),[7],-0.349
same,glycan array binding signal (z-score),[8],-0.472
same,glycan array binding signal (z-score),[9],0.097
same,glycan array binding signal (z-score),[10],0.246
same,glycan array binding signal (z-score),Fuc(a1-2)Gal6S(b1-4)Glc,0.171
same,glycan array binding signal (z-score),[11],0.157
same,glycan array binding signal (z-score),Fuc(a1-2)[Gal(a1-3)]Gal,-0.295
same,glycan array binding signal (z-score),[12],0.022
same,glycan array binding signal (z-score),[13],-0.407
same,glycan array binding signal (z-score),[14],-0.131
same,glycan array binding signal (z-score),[15],-0.111
same,glycan array binding signal (z-score),[16],0.332
same,glycan array binding signal (z-score),[17],-0.535
same,glycan array binding signal (z-score),[18],-0.401
same,glycan array binding signal (z-score),[19],-0.093
same,glycan array binding signal (z-score),[20],-0.507
same,glycan array binding signal (z-score),[21],-0.29
same,glycan array binding signal (z-score),[22],0.124
same,glycan array binding signal (z-score),[23],-0.061
same,glycan array binding signal (z-score),[24],0.116
same,glycan array binding signal (z-score),[25],0.402
same,glycan array binding signal (z-score),[26],-0.107
same,glycan array binding signal (z-score),[27],-0.571
same,glycan array binding signal (z-score),[28],-0.441
same,glycan array binding signal (z-score),[29],-0.321
same,glycan array binding signal (z-score),[30],0.085
same,glycan array binding signal (z-score),[31],-0.112
same,glycan array binding signal (z-score),[32],-0.276
same,glycan array binding signal (z-score),[33],-0.296
same,glycan array binding signal (z-score),[34],-0.185
same,glycan array binding signal (z-score),[35],0.307
same,glycan array binding signal (z-score),[36],-0.15
